What is called IC50 is the concentration that gives 50% inhibition.

A lower IC50 marks a more sensitive line; where the fit passes the top or lowest dose, that dose stands as a limit. AUC is the area under the same curve over the 256-fold range up to the top dose, as a fraction; values near 1 show little effect. For part of these data: An inferred top dose comes from the curve model; the source does not state it. For part of these data: Drugs with an entry number were screened twice under separate entries, and the two screens often disagree.

What all share (assay): Viability of human cancer cell lines after 72 h of drug (GDSC screen)
Compound in one assay: Fc1cc(-c2ccnc(Nc3ccc(-n4cnc(N5CCOCC5)n4)cc3)n2)cc(N2CCOCC2)c1 [JNK-9L]
The settings on record: top dose 5.12 µM; top dose inferred. On the procedure:
(§1)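 Human cancer cell lines in 384-well plates, medium with 10% serum, drug for 72 h over a 256-fold dose range (nine 2-fold or five 4-fold steps up to the top dose). Adherent lines were fixed and stained with the nucleic acid dye Syto60, suspension lines read with resazurin; signal relative to control wells, capped at 0 and 100%. One two-parameter sigmoid per drug and line, fitted in a mixed model over all curves with the slope shared within a line.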

Compound in the next assay: COc1cc(F)c(F)c(Nc2ccc(I)cc2F)c1NS(=O)(=O)C1(C[C@H](O)CO)CC1 [RDEA119]
Particulars: top dose 5 µM, top dose inferred. The method, then: as §1

Compound in a further assay: OC[C@H](Cc1ccccc1)Nc1nc(Oc2ccc3c(c2)CCC3)nc2c1ncn2Cc1ccc(-c2ccccc2)cc1 [QS11]
The settings on record: top dose 10.24 µM. The method, then:
as §1

Compound in a further assay: O=c1[nH]cc(F)c(=O)[nH]1 [5-Fluorouracil]
The settings on record: top dose 32 µM; top dose inferred. On the procedure:
as §1

Compound in the next assay: CC(C)(C)c1cc(NC(=O)Nc2ccc(-c3cn4c(n3)sc3cc(OCCN5CCOCC5)ccc34)cc2)no1 [AC220]
Particulars: top dose 1.024 µM; top dose inferred. On the procedure:
as §1

Compound in the next assay: NCC(=O)Nc1ccc(-n2nc(C(F)(F)F)cc2-c2ccc3c(ccc4ccccc43)c2)cc1 [OSU-03012]
The settings on record: top dose 16 µM; top dose inferred. On the procedure:
as §1

Compound in a further assay: C#Cc1cccc(Nc2ncnc3cc(OC)c(OCCCCCCC(=O)NO)cc23)c1 [CUDC-101]
The settings on record: top dose 5.12 µM; top dose inferred. The method, then:
as §1

With LNZTA3WT4 (glioma, adherent), the AUC in the assay with JNK-9L worked out at 0.581; with RDEA119 (screen: GDSC drug entry 1014), 0.865; in the assay with RDEA119 (screen: GDSC drug entry 1526), 0.87; in the assay with QS11, 0.983; in the assay with 5-Fluorouracil it was 0.893; in the assay with AC220 it was 0.987. The AUC with OSU-03012 amounted to 0.897; with CUDC-101, 0.978. For the same cell line, the IC50 is 529 nM in the assay with JNK-9L; 4250 nM with RDEA119 (screen: GDSC drug entry 1014); 4510 nM with RDEA119 (screen: GDSC drug entry 1526); over 10200 nM with QS11; over 32000 nM in the assay with 5-Fluorouracil; over 1020 nM in the assay with AC220. The IC50 with OSU-03012 is over 16000 nM; with CUDC-101, over 5120 nM.
Regarding “LOU-NH91 (lung squamous cell carcinoma, adherent)”, the AUC in the assay with JNK-9L is 0.881; with RDEA119 (screen: GDSC drug entry 1014) it was 0.876; with RDEA119 (screen: GDSC drug entry 1526), 0.937; with QS11 it was 0.98; in the assay with 5-Fluorouracil it was 0.964; with AC220, 0.984. Further, the AUC with OSU-03012 is 0.898; in the assay with CUDC-101 it was 0.602. For the same cell line, the IC50 in the assay with JNK-9L is over 5120 nM; with RDEA119 (screen: GDSC drug entry 1014), over 5000 nM; with RDEA119 (screen: GDSC drug entry 1526) it was over 5000 nM; with QS11, over 10200 nM; with 5-Fluorouracil, over 32000 nM; in the assay with AC220, over 1020 nM. Moreover, the IC50 in the assay with OSU-03012 is over 16000 nM; with CUDC-101 it was 625 nM.
For “LOUCY (T-cell lymphoblastic leukaemia, suspension)”, the AUC came to 0.581 with JNK-9L; 0.972 with RDEA119 (screen: GDSC drug entry 1014); 0.958 with RDEA119 (screen: GDSC drug entry 1526); 0.988 with QS11; 0.807 in the assay with 5-Fluorouracil; 0.903 with AC220. The AUC in the assay with OSU-03012 is 0.862; in the assay with CUDC-101 it was 0.228. The IC50 in the assay with JNK-9L was 510 nM; with RDEA119 (screen: GDSC drug entry 1014) it was over 5000 nM; with RDEA119 (screen: GDSC drug entry 1526), over 5000 nM; in the assay with QS11, over 10200 nM; with 5-Fluorouracil, 12900 nM; with AC220, 907 nM. For the same cell line, the values for the IC50 with OSU-03012 and with CUDC-101 were 9780 nM and 62.9 nM, respectively.
For the cell line LOXIMVI (melanoma, semi-adherent), the AUC with JNK-9L came to 0.595; with RDEA119 (screen: GDSC drug entry 1014), 0.509; with RDEA119 (screen: GDSC drug entry 1526), 0.551; with QS11 it was 0.923; with 5-Fluorouracil it was 0.903; with AC220 it was 0.99. Moreover, the AUC in the assay with OSU-03012 is 0.769; with CUDC-101, 0.589. Further, the IC50 in the assay with JNK-9L is 565 nM; in the assay with RDEA119 (screen: GDSC drug entry 1014) it was 330 nM; with RDEA119 (screen: GDSC drug entry 1526) it was 424 nM; with QS11, over 10200 nM; with 5-Fluorouracil it was over 32000 nM; with AC220, over 1020 nM. The IC50 in the assay with OSU-03012 is 5390 nM; with CUDC-101, 545 nM.
Regarding LP-1 (myeloma, suspension), the AUC with JNK-9L turned out to be 0.568; in the assay with RDEA119 (screen: GDSC drug entry 1014) it was 0.991; with RDEA119 (screen: GDSC drug entry 1526), 0.991; with QS11, 0.928; with 5-Fluorouracil, 0.905; in the assay with AC220, 0.916. Moreover, the values for the AUC with OSU-03012 and with CUDC-101 were 0.803 and 0.487, respectively. For the same cell line, the half-inhibitory concentration (IC50) with JNK-9L was 473 nM; with RDEA119 (screen: GDSC drug entry 1014), over 5000 nM; in the assay with RDEA119 (screen: GDSC drug entry 1526), over 5000 nM; in the assay with QS11 it was over 10200 nM; with 5-Fluorouracil, 30000 nM; in the assay with AC220 it was over 1020 nM. Besides, the IC50 with OSU-03012 is 6390 nM; in the assay with CUDC-101, 297 nM.
As to LS-123 (large intestine, adherent), the AUC with JNK-9L came out at 0.732; with RDEA119 (screen: GDSC drug entry 1526), 0.841; with QS11 it was 0.809; with 5-Fluorouracil, 0.96; in the assay with AC220, 0.972; with OSU-03012, 0.539. For the same cell line, in the assay with CUDC-101, the AUC is 0.631. In addition, the IC50 with JNK-9L was 1860 nM; with RDEA119 (screen: GDSC drug entry 1526) it was over 5000 nM; in the assay with QS11, 7680 nM; in the assay with 5-Fluorouracil, over 32000 nM; in the assay with AC220, over 1020 nM; in the assay with OSU-03012, 1320 nM. For the same cell line, in the assay with CUDC-101, the IC50 came out at 828 nM.
On to LS-180 (large intestine, adherent), for which the AUC in the assay with JNK-9L came out at 0.572; with RDEA119 (screen: GDSC drug entry 1014), 0.651; with RDEA119 (screen: GDSC drug entry 1526) it was 0.715; with QS11 it was 0.823; in the assay with 5-Fluorouracil, 0.881; in the assay with AC220, 0.979. In addition, the AUC with OSU-03012 stood at 0.662; with CUDC-101, 0.593. For the same cell line, the IC50 with JNK-9L is 518 nM; in the assay with RDEA119 (screen: GDSC drug entry 1014) it was 872 nM; in the assay with RDEA119 (screen: GDSC drug entry 1526) it was 1400 nM; in the assay with QS11, 7170 nM; in the assay with 5-Fluorouracil, over 32000 nM; with AC220 it was over 1020 nM. Further, the IC50 with OSU-03012 came out at 3030 nM; in the assay with CUDC-101, 600 nM.
Turning to LS-513 (large intestine, adherent), the AUC with JNK-9L amounted to 0.689; with RDEA119 (screen: GDSC drug entry 1014) it was 0.427; with RDEA119 (screen: GDSC drug entry 1526) it was 0.611; with QS11, 0.977; in the assay with 5-Fluorouracil, 0.505; with AC220, 0.977. For the same cell line, the AUC with OSU-03012 came out at 0.902; in the assay with CUDC-101 it was 0.735. Further, the IC50 was 1110 nM in the assay with JNK-9L; 196 nM in the assay with RDEA119 (screen: GDSC drug entry 1014); 641 nM with RDEA119 (screen: GDSC drug entry 1526); over 10200 nM in the assay with QS11; 2060 nM in the assay with 5-Fluorouracil; over 1020 nM in the assay with AC220. The IC50 is over 16000 nM with OSU-03012 and 1550 nM in the assay with CUDC-101.

These data come from the supplement of paper PMC4967469.
